Results reported in PubChem BioAssay (NCATS).
“And” between values parts separate entries of the source, which are not always exact repeats. Equal values may be shown once. This list was built around the results that the source calls inconclusive (neither active nor inactive); the mix of calls is not that of the screen. Potencies beside an inconclusive call are fits to weak or partial responses and may not hold up. The source made the active and inactive calls. The call rests on the fitted dose curve; in most records, active means well fitted cell-killing curve with a large enough effect; inconclusive means small, poorly fitted or top-dose-only effect; inactive means flat fitted curve, though single readings scatter.

Tests used:
[1] = Cellular viability qHTS for adrenocortical cancer (ACC) cell line SW-13 (AID 1963989); conditions: SW-13 ACC cells viability, CellTiter-Glo, 48 h; activity (max response): hits give low values; further: nearly all actives have a fitted effect of over 65% in size;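 on activity (max response): cells grown in serum-free medium with ITS supplement; on the % scale 0 is the no-effect control and ±100 the full control effect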
In short: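 IC50 and maximal-response values come from four-parameter logistic fits of titration data. SW-13 cells in serum-free medium received compounds (up to 46 uM final) for 48 h before CellTiter-Glo luminescence.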

[2] = Cellular viability qHTS for adrenocortical cancer (ACC) cell line NCI-H295R (AID 1963990); conditions: CellTiter-Glo ATP luminescence, 48 h; activity change, negative = viability loss: at 46.1 µM (top of the series); further: nearly all actives have a fitted effect of over 60% in size;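 on activity change, negative = viability loss: 0% = DMSO only wells and -100% = full killing with cytotoxic reference compound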
In short: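 Adrenocortical carcinoma cells, suspended at 300 000 cells/mL in serum-free DMEM plus ITS, rested overnight before pin transfer of compound. After two days' incubation, ATP-dependent luminescence was recorded and curve-fitted.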
Potency means the concentration at half of the fitted maximal effect; tags describe the fitted curve by direction and shape.

Structure (SMILES) | Potency [1] | Potency [2] | activity (max response) [1]
C=CC(=O)N1CC[C@@H](Oc2nc(Nc3ccc(N4CCC(N5CCN(C)CC5)CC4)cc3)c(C(N)=O)nc2CC)C1 | active: 1.43 µM | active: 7.15 µM | –
CC(C)C[C@H](CO)Nc1nc(S[C@@H](C)c2ccccc2)nc2nc(N)sc12 | active: 31.6 µM | inconclusive: 35.5 µM [cytotoxic, single point] | –
CCCCN1CCCC[C@H]1C(=O)Nc1c(C)cccc1C | inconclusive: 29.1 µM [cytotoxic, single point] | inconclusive: 29.1 µM [cytotoxic, single point] | –
CCCC(O)C(CC)CO (stereo unspecified) | – | inconclusive: 0.231 µM [cytotoxic, full curve] | inactive: 8.36%
COc1ccc(N(C)c2nc(C)nc3ccccc23)cc1 | active: 0.0112 µM | inconclusive: 0.0089 µM [cytotoxic, full curve, poor fit] | –
O=C(NOCCO)c1ccc2cncn2c1Nc1ccc(I)cc1F | inconclusive: 7.94 µM [cytotoxic, partial curve, poor fit] | inactive | –
CNS(=O)(=O)Nc1nccc(Cc2c(C)c3ccc(Oc4ncccn4)cc3oc2=O)c1F | inconclusive: 5.01 µM [cytotoxic, full curve] | inconclusive: 17.8 µM [cytotoxic, partial curve, poor fit] | –
CC(C)(C)c1ccc(C(O)CCCN2CCC(C(O)(c3ccccc3)c3ccccc3)CC2)cc1 (stereo unspecified) | inconclusive: 6.51 µM [cytotoxic, partial curve] | active: 4.11 µM | –
CC(C(O)c1ccccc1)N(C)CCOC(c1ccccc1)c1ccccc1 (stereo unspecified) | active: 20.6 µM | inconclusive: 23.1 µM [cytotoxic, single point] | –
c1cc(CN2CCCCC2)cc(OCCCNc2nc3ccccc3s2)c1 | inconclusive: 20.6 µM [cytotoxic, single point] | inconclusive: 29.1 µM [cytotoxic, single point] | –
Cc1ccc(NC(=O)c2ccc(CN3CCNCC3)cc2)cc1Nc1nccc(-c2cccnc2)n1 | inconclusive: 25.1 µM [cytotoxic, partial curve] | inconclusive: 35.5 µM [cytotoxic, single point] | –
C=C1c2cccc(O)c2C(O)=C2C(=O)[C@]3(O)C(O)=C(C(N)=O)C(=O)[C@@H](N(C)C)[C@@H]3[C@@H](O)[C@H]12 | – | inconclusive: 23.1 µM [cytotoxic, single point] | inactive: 3.29%
O=C(/C=C/c1ccc(O)cc1)c1ccc(O)cc1O | inconclusive: 17.8 µM [cytotoxic, partial curve] | inconclusive: 35.5 µM [cytotoxic, single point] | –
NC(=O)C1=C(O)[C@@]2(O)C(=O)C3=C(O)c4c(O)cccc4C[C@H]3C[C@H]2CC1=O | inconclusive: 25.1 µM [cytotoxic, single point] | inconclusive: 35.5 µM [cytotoxic, single point] | –
Cc1ccc(NC(=O)c2ccc(CN3CCN(C)CC3)cc2)cc1Nc1nccc(-c2cccnc2)n1 | inconclusive: 20.6 µM [cytotoxic, partial curve] and inconclusive: 22.4 µM [cytotoxic, single point] | inconclusive: 29.1 µM [cytotoxic, single point] | –
CNC(=O)c1cc(Oc2ccc3nc(N[C@@H]4CCCC[C@H]4O)sc3c2)ccn1 | inconclusive: 22.4 µM [cytotoxic, single point] | inconclusive: 31.6 µM [cytotoxic, single point] | –
NC(=O)N1c2ccccc2C=Cc2ccccc21 | – | inactive | inactive: 8.83%
COc1cc(C(N)=O)ccc1NC(=O)[C@@H]1N[C@@H](CC(C)(C)C)[C@@]2(C(=O)Nc3cc(Cl)ccc32)[C@H]1c1cccc(Cl)c1F | active: 15.8 µM | active: 11.2 µM | –
CCN(CC)CCNC(=O)c1c(C)[nH]c(/C=C2\C(=O)Nc3ccc(F)cc32)c1C | inconclusive: 15.8 µM [cytotoxic, partial curve] | active: 13 µM and active: 15.8 µM | –
CN1CCN(C2Cc3ccccc3Sc3ccc(Cl)cc32)CC1 (stereo unspecified) | inconclusive: 29.1 µM [cytotoxic, single point] | inconclusive: 18.4 µM [cytotoxic, single point] | –
C=C1C(=O)O[C@@H]2[C@H]3O[C@]3(C)CC/C=C(\C)CC[C@@H]12 | inconclusive: 31.6 µM [cytotoxic, single point] | active: 10 µM | –
O=C1NC(=O)[C@@H](c2cn3c4c(cccc24)CCC3)[C@@H]1c1c[nH]c2ccccc12 | inconclusive: 0.316 µM [cytotoxic, full curve] | inconclusive: 0.141 µM [cytotoxic, full curve, poor fit] | –
CC(=O)O[C@@]12CO[C@@H]1C[C@H](O)[C@@]1(C)C(=O)[C@H](O)C3=C(C)[C@@H](OC(=O)[C@H](O)[C@@H](NC(=O)OC(C)(C)C)c4ccccc4)C[C@@](O)([C@@H](OC(=O)c4ccccc4)[C@H]21)C3(C)C | inconclusive: 0.0089 µM [cytotoxic, full curve, poor fit] | active: 0.0411 µM | –
CN1C/C=C/CCOc2cccc(c2)-c2ccnc(n2)Nc2cccc(c2)C1 | inconclusive: 35.5 µM [cytotoxic, single point] | inconclusive: 35.5 µM [cytotoxic, single point] | –
Cc1ccc(C(=O)c2ccc(CC(=O)O)n2C)cc1 | – | inactive | inactive: 4.18%
CCn1c(=O)c(-c2ccc(-c3cncc(C)n3)cc2Cl)cc2cnc(NCCC3CCN(C)CC3)nc21 | inconclusive: 2.32 µM [cytotoxic, partial curve] | inconclusive: 3.68 µM [cytotoxic, single point] | –
O=C(CCN1CCC(c2ccccc2)C1)c1ccc2c(c1)OCCO2 (stereo unspecified) | inconclusive: 29.1 µM [cytotoxic, single point] | active: 6.51 µM | –
C=CC(=O)Nc1cccc(Oc2nc(Nc3ccc(N4CCN(C)CC4)cc3)nc3ccsc23)c1 | active: 3.16 µM | – | –
CC[C@]12C=CCN3CC[C@@]4(c5cc([C@@]6(C(=O)OC)C[C@H]7C[C@@H](C(C)(F)F)CN(Cc8c6[nH]c6ccccc86)C7)c(OC)cc5N(C)[C@H]4[C@@](O)(C(=O)OC)[C@@H]1OC(C)=O)[C@@H]32 | active: 0.123 µM | – | –
